This is one part of the list. The full chains were built here from the parent and the listed change. Values near 0.05 are background.
B1: TEV protease; numbered along this chain (parent)
chain: MGESLFKGPRDYNPISSSICHLTNESDGHTTSLYGIGFGPFIITNKHLFRRNNGTLVVQSLHGVFKVKDTTTLQQHLVDGRDMIIIRMPKDFPPFPQKLKFREPQREERICLVTTNFQTKSMSSMVSDTSCTFPSGDGIFWKHWIQTKDGQCGSPLVSTRDGFIVGIHSASNFTNTNNYFTSVPKNFMELLTNQEAQQWVSGWRLNADSVLWGGHKVFMVKPEEPFQPVKEATQL

Variants of: B1
Test: raw area under fraction-flipped curve 0-4 h after induction (AUC4h, not background-subtracted), DNA-recorder readout of cleavage of the substrate (dimensionless); higher = more cleavage of the substrate by the protease variant
Details: temperature: 34 °C; time window: 0-4 h after rhamnose induction
Protocol: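 In vivo DNA recorder in E. coli TOP10(DE3) ΔrhaA at 34 °C. Each TEVp single-site mutant (parent TEVp 0) is paired with a single-site variant of the 7-mer TEVs (canonical ENLYFQ|S). The substrate sits between flexible linkers in a Bxb1-sfGFP-TEVs-SsrA fusion, so cleavage stabilises Bxb1 and speeds flipping of a recombination array, read by NGS. The value is the raw area under the fraction-flipped curve over 0-4 h after rhamnose induction (AUC4h), with ≥20 reads per time point. It is not background-subtracted; inactive controls average about 0.047.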
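Further: Bxb1 expression induced with 0.2% (w/v) L-rhamnose at OD600 near 0.5, cultures sampled hourly, flipped fraction per protease–substrate barcode pair counted by paired-end Illumina sequencing.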

Variant	area with substrate CNLYFQS	area with substrate DNLYFQS	area with substrate FNLYFQS	area with substrate GNLYFQS	area with substrate HNLYFQS	area with substrate INLYFQS	area with substrate KNLYFQS	area with substrate LNLYFQS	area with substrate MNLYFQS	area with substrate NNLYFQS	area with substrate PNLYFQS	area with substrate QNLYFQS	area with substrate SNLYFQS	area with substrate TNLYFQS	area with substrate WNLYFQS	area with substrate YNLYFQS	area with substrate VNLYFQS	area with substrate RNLYFQS
MGESLFKGPRDYNPISSSICHLTNESDGHTTSLYGIGFGPFIITNKHLFRRNNGTLVVQSLHWVFKVKDTTTLQQHLVDGRDMIIIRMPKDFPPFPQKLKFREPQREERICLVTTNFQTKSMSSMVSDTSCTFPSGDGIFWKHWIQTKDGQCGSPLVSTRDGFIVGIHSASNFTNTNNYFTSVPKNFMELLTNQEAQQWVSGWRLNADSVLWGGHKVFMVKPEEPFQPVKEATQL [G63W]	0.0658	0.0748	0.0594	0.0689	0.0586	0.0618	0.0725	0.0638	0.0717	0.0655	0.0646	0.0699	0.0646	0.0593	0.0554			
MGESLFKGPRDYNPISSSICHLTNESDGHTTSLYGIGFGPFIITNKHLFRRNNGTLVVQSLHGVFKVKPTTTLQQHLVDGRDMIIIRMPKDFPPFPQKLKFREPQREERICLVTTNFQTKSMSSMVSDTSCTFPSGDGIFWKHWIQTKDGQCGSPLVSTRDGFIVGIHSASNFTNTNNYFTSVPKNFMELLTNQEAQQWVSGWRLNADSVLWGGHKVFMVKPEEPFQPVKEATQL [D69P]	0.0684	0.0627	0.055	0.0802	0.0609	0.0646	0.0797	0.0588	0.0689	0.066	0.0609		0.0623	0.0665	0.0594	0.0589		
MGESLFKGPRDYNPISSSICHLTNESDGHTTSLYGIGFGPFIITNKHLFRRNNGTLVVQSCHGVFKVKDTTTLQQHLVDGRDMIIIRMPKDFPPFPQKLKFREPQREERICLVTTNFQTKSMSSMVSDTSCTFPSGDGIFWKHWIQTKDGQCGSPLVSTRDGFIVGIHSASNFTNTNNYFTSVPKNFMELLTNQEAQQWVSGWRLNADSVLWGGHKVFMVKPEEPFQPVKEATQL [L61C]	0.0611	0.0766	0.068	0.0688	0.084	0.065	0.0678	0.0707	0.0696	0.0574	0.0726	0.072	0.0717	0.0621	0.0645	0.0705	0.0465	
MGESLFKGPRDYNPISSSICHLTNESDGHTTSLYGIGFGPFIITNKHLFRRGNGTLVVQSLHGVFKVKDTTTLQQHLVDGRDMIIIRMPKDFPPFPQKLKFREPQREERICLVTTNFQTKSMSSMVSDTSCTFPSGDGIFWKHWIQTKDGQCGSPLVSTRDGFIVGIHSASNFTNTNNYFTSVPKNFMELLTNQEAQQWVSGWRLNADSVLWGGHKVFMVKPEEPFQPVKEATQL [N52G]	0.0691	0.0574	0.0589	0.0512	0.0505	0.0551	0.062	0.0542		0.0603	0.0675	0.0739	0.0601	0.061	0.053	0.053	0.057	0.048
MGESLFKGPRDYNPISSSICHLTNESDGHTTSLYGIGFGPFIITYKHLFRRNNGTLVVQSLHGVFKVKDTTTLQQHLVDGRDMIIIRMPKDFPPFPQKLKFREPQREERICLVTTNFQTKSMSSMVSDTSCTFPSGDGIFWKHWIQTKDGQCGSPLVSTRDGFIVGIHSASNFTNTNNYFTSVPKNFMELLTNQEAQQWVSGWRLNADSVLWGGHKVFMVKPEEPFQPVKEATQL [N45Y]	0.0576	0.0312	0.0619	0.0611	0.0577	0.0133	0.0645		0.0548	0.0629	0.0585	0.0582	0.0657	0.0496	0.0583	0.0594		
MGESLFKGPRDYNPISSSICHLTNESDGHTTSLYGIGFGPFIITWKHLFRRNNGTLVVQSLHGVFKVKDTTTLQQHLVDGRDMIIIRMPKDFPPFPQKLKFREPQREERICLVTTNFQTKSMSSMVSDTSCTFPSGDGIFWKHWIQTKDGQCGSPLVSTRDGFIVGIHSASNFTNTNNYFTSVPKNFMELLTNQEAQQWVSGWRLNADSVLWGGHKVFMVKPEEPFQPVKEATQL [N45W]	0.0549	0.0601		0.0647	0.0575	0.0534	0.0148	0.0923	0.0309	0.051	0.058		0.058	0.056	0.0588	0.0568	0.0548	0.0678
MGESLFKGPRDYNPISSSICHLTNESDGHTTSLYGIGFGPFIITNKHDFRRNNGTLVVQSLHGVFKVKDTTTLQQHLVDGRDMIIIRMPKDFPPFPQKLKFREPQREERICLVTTNFQTKSMSSMVSDTSCTFPSGDGIFWKHWIQTKDGQCGSPLVSTRDGFIVGIHSASNFTNTNNYFTSVPKNFMELLTNQEAQQWVSGWRLNADSVLWGGHKVFMVKPEEPFQPVKEATQL [L48D]	0.0583		0.0517		0.0587		0.0623	0.0608	0.0557	0.0408	0.0635		0.0597	0.0584	0.0611	0.0519	0.0659	
MGESLFKGPRDYNPISSSICHLTNESDGHTTSLYGIGFGPFIITNKHPFRRNNGTLVVQSLHGVFKVKDTTTLQQHLVDGRDMIIIRMPKDFPPFPQKLKFREPQREERICLVTTNFQTKSMSSMVSDTSCTFPSGDGIFWKHWIQTKDGQCGSPLVSTRDGFIVGIHSASNFTNTNNYFTSVPKNFMELLTNQEAQQWVSGWRLNADSVLWGGHKVFMVKPEEPFQPVKEATQL [L48P]	0.0517			0.0494	0.0505	0.0757		0.0609	0.0393	0.0579					0.053	0.0591	0.0597	
